# Laboratory results as given in PubChem BioAssay AID504332 (National Center for Advancing Translational Sciences (NCATS), 2011).
# In all, about 350,000 compounds went through this assay and about 31,000 (8.9%) were called active. The shares of active, inactive and inconclusive entries below differ from those in the screen. Calls come from the whole dose curve; as a rule, active = well fitted inhibition curve with a large enough effect; inconclusive = small, poorly fitted or top-dose-only effect; inactive = no such curve, though single readings can be large or run the other way. Where the call is inconclusive, the potency comes from a doubtful curve fit.
# Target: Histone-lysine N-methyltransferase EHMT2 (Homo sapiens) (UniProt Q96KQ7)
# Experiment: qHTS Assay for Inhibitors of Histone Lysine Methyltransferase G9a; note: nearly all actives have a fitted effect of over 75% in size
# Details: G9a H3K9 monomethylation, AlphaScreen, 2 h; activity, negative = inhibition: at 59 µM (top of the series) unless noted
# Method in brief: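 Step 1: enzyme (final 20 nM) with compound, 15 min RT. Step 2: substrate peptide 500 nM and SAM 20 uM, 2 h RT. Step 3: anti-H3K9me1 antibody and AlphaScreen beads, 10 min, then plate read.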
# % is set by controls: 0 for no effect and ±100 for the full control effect; potency is the fitted concentration of half-maximal effect; tags give direction and shape of the fitted curve.
# UniProt Q96KQ7, sequence (Q96KQ7 whole entry, looked up): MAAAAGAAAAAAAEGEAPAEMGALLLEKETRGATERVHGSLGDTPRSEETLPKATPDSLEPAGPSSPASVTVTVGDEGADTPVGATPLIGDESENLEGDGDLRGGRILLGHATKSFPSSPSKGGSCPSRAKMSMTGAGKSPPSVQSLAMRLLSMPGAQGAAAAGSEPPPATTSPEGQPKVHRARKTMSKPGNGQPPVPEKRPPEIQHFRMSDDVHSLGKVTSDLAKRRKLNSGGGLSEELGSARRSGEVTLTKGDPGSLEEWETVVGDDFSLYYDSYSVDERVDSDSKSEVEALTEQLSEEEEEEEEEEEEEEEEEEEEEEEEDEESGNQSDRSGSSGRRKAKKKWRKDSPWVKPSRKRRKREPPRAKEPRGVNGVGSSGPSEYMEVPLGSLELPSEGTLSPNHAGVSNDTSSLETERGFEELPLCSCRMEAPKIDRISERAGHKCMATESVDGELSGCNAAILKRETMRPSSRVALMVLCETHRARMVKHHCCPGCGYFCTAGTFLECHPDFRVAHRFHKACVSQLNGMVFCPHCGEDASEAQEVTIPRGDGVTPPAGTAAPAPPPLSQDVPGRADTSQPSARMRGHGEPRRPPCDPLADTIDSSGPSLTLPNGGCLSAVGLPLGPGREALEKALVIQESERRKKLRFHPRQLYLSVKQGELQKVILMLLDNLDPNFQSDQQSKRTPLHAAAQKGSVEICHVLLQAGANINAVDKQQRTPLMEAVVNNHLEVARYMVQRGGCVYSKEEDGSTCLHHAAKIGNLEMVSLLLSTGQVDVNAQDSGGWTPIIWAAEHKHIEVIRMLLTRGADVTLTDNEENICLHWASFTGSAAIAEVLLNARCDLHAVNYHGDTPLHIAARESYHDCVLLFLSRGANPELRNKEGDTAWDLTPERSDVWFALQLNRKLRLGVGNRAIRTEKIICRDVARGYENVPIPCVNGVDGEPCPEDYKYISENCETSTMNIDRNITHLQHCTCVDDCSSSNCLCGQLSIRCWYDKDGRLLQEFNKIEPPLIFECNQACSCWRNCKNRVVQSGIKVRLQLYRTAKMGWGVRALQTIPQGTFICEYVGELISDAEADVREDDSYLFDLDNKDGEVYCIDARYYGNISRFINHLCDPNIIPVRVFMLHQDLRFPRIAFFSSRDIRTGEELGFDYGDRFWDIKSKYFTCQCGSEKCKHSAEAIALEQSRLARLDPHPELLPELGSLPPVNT
SMILES,"activity, negative = inhibition",Potency
COc1cc2c(cc1OC)CN(C(=O)C1CCCN(C(=O)c3ccc(Cl)cc3)C1)CC2 (configuration not stated),inactive: 6.3% [at 12.7 µM],
O=C(c1ccco1)N1CCN(C(c2ccccn2)c2nnnn2C2CCCC2)CC1 (configuration not stated),,"inconclusive: 25.1 µM [inhibitor, single point]"
CCOC(=O)N1CCN(c2cc(=O)n(-c3ccc(C)cc3)c(=O)[nH]2)CC1,,active: 50.1 µM
Cc1oc2c(C)c3oc(=O)c(CCC(=O)O)c(C)c3cc2c1-c1ccccc1,,"inconclusive: 89.1 µM [inhibitor, single point]"
O=C(CC(c1ccccc1)c1ccccc1)Nc1nn[nH]n1,,active: 44.7 µM
CCOc1ccc(OCCC(=O)N2CCN(S(=O)(=O)c3ccc(F)cc3)CC2)cc1,,"inconclusive: 56.2 µM [inhibitor, partial curve, poor fit]"
c1ccc2nc(-c3ccncc3)ccc2c1,,inactive
Cc1ccc(OCCC(=O)O)cc1,,"inconclusive: 44.7 µM [inhibitor, partial curve]"
CC1=C(C(=O)OC2CCCCCC2)C(c2cccc(Cl)c2)CC(=O)N1 (configuration not stated),,"inconclusive: 10 µM [inhibitor, partial curve, poor fit]"
COc1cc(C2=Nc3c(c(C)nn3-c3ccccc3)P(=O)(N3CCOCC3)O2)cc(OC)c1OC (configuration not stated),,"inconclusive: 28.2 µM [inhibitor, single point]"
CCn1c(C)cc(/C=C2/NC(=O)N(Cc3ccccc3F)C2=O)c1C,,inactive
COc1ccccc1C(=O)OCc1cc(=O)n2nc(C(C)C)sc2n1,,inactive
COc1cc(OC)cc(C(=O)N2CCC(N3CCN(c4ccccc4OC)CC3)CC2)c1,,active: 7.94 µM
CCCNC(=O)[C@H](C)NC(=O)c1ccc(Br)cc1,,inactive
CC(C)(C)C1CCC2(CC1)C(C#N)=C(SCC(=O)Nc1ccccc1)NC(=O)C2C#N (configuration not stated),inactive: -44.5% [at 0.0925 µM],
O=C(NC(=S)Nc1ncc(Br)cc1Br)c1cncc(Br)c1,,inactive
CCC(c1nnnn1C1CCCC1)N1CCN(C(=O)c2ccco2)CC1 (configuration not stated),,active: 17.8 µM
COc1ccc(-c2c(C)c3ccc(O)cc3oc2=O)cc1OC,,inactive
CSc1ccccc1C(=O)Nc1c(C)cccc1C,,active: 28.2 µM
Nc1ccc2nc3c(=O)[nH]c(=S)[nH]c3nc2c1,,active: 10 µM
Cc1ccc(NC(=O)CSc2ncc3ccccn23)cc1C,,"inconclusive: 50.1 µM [inhibitor, partial curve, poor fit]"
O=C(c1ccc(N2C(=O)C3CCCCC3C2=O)cc1)N1CCCCC1 (configuration not stated),,"inconclusive: 1.26 µM [inhibitor, full curve]"
Cc1ccccc1/C=N/n1c(C2CCCCC2)n[nH]c1=S,,active: 12.6 µM
CC(Sc1nnc(C2CC2)n1C1CC1)C(=O)NC1(C#N)CCCCC1 (configuration not stated),,inactive

SMILES,"activity, negative = inhibition",Potency
COc1ccc(-c2noc(-c3ccc(NCC4CCCO4)c([N+](=O)[O-])c3)n2)cc1OC (configuration not stated),,inactive
CCOC(=O)CSc1nnc(-c2ccoc2C)n1-c1ccc(OCC)cc1,,"inconclusive: 89.1 µM [inhibitor, single point]"
O=S(=O)(c1ccc2c(c1)OCCO2)N1CCC(n2cnc3cc(F)ccc32)CC1,,"inconclusive: 89.1 µM [inhibitor, single point]"
CCN1CCN(C(=O)Cn2ncc3c2-c2ccccc2OC3)CC1,,"inconclusive: 89.1 µM [inhibitor, single point]"
CCOC(=O)C1(Cc2ccc(Cl)cc2)CCN(Cc2cn(CC)nc2C)CC1,,inactive
O=C1NC(=Nc2ccccc2)S/C1=C/c1cccs1,,"inconclusive: 28.2 µM [inhibitor, partial curve, poor fit]"
CCCCn1c(N)c(N(CC(C)C)C(=O)c2ccco2)c(=O)[nH]c1=O,,active: 50.1 µM
Cc1nc(-c2ccc(NC(=O)c3ccccc3)cc2)cs1,,inactive
Cn1nnc2c(N3CCCCC3)nccc21,,"inconclusive: 56.2 µM [inhibitor, single point]"
CN(C)CCN(C(=O)c1ccc2c(c1)OCCO2)c1nc2ccc(Cl)cc2s1,,"inconclusive: 63.1 µM [inhibitor, partial curve, poor fit]"
Cc1c(C)n(C(=O)CN2CCC(C(N)=O)CC2)c2ccccc12,,inactive
N#C/C(C(=O)NCc1ccco1)=C1/SC=C(c2ccccc2)N1c1ccccc1,,active: 15.8 µM
CCC(=O)N(Cc1cc(=O)[nH]c2ccccc12)c1ccc(C)cc1C,,active: 70.8 µM
COc1ccccc1CNC(=O)c1cnn2c(C(F)F)cc(C)nc12,,inactive
CC(OC(=O)C1CCN(c2ccc(C(F)(F)F)cn2)CC1)C(=O)Nc1ccc(S(N)(=O)=O)cc1 (configuration not stated),,"inconclusive: 3.55 µM [inhibitor, partial curve, poor fit]"
COc1ccc(S(=O)(=O)N2CC(O)CC2C(=O)OCc2nc3sc(C)c(C)c3c(=O)[nH]2)cc1 (configuration not stated),,"inconclusive: 89.1 µM [inhibitor, single point]"
Cc1ccc(C)c(NC(=O)CSc2nnc([C@@H](N)Cc3ccccc3)o2)c1,,"inconclusive: 50.1 µM [inhibitor, partial curve, poor fit]"
Cc1ccc(Nc2nc3c(s2)CCC3)c(C)c1,,"inconclusive: 22.4 µM [inhibitor, single point]"
Cn1c(NC(=O)Cc2ccc(F)cc2)cc(=O)n(C)c1=O,,"inconclusive: 89.1 µM [inhibitor, single point]"
Cc1cc(C(=O)N2CCN(c3cccc(Cl)c3)CC2)c(C)o1,,"inconclusive: 89.1 µM [inhibitor, single point]"
COc1ccc(C2C(C(=O)c3ccco3)=C(O)C(=O)N2CCCn2ccnc2)c(OC)c1 (configuration not stated),,active: 50.1 µM
COc1ccc(NS(=O)(=O)c2cccc(C(=O)N3CCN(Cc4cc(OC)ccc4OC)CC3)c2)cc1,,"inconclusive: 8.91 µM [inhibitor, partial curve, poor fit]"
O=C(CN1C(=O)NC2(CCc3ccccc32)C1=O)c1ccc(Cl)cc1 (configuration not stated),,"inconclusive: 50.1 µM [inhibitor, partial curve, poor fit]"
